Measurements as given in PubChem BioAssay AID504333 (National Center for Advancing Translational Sciences (NCATS), 2011).
Among all 360,000 compounds or so, about 16,000 (4.4%) were called active. Inconclusive results, whose numbers are uncertain, are shown with a selection of clear calls. Calls come from the whole dose curve; as a rule, active = well fitted inhibition curve with a large enough effect; inconclusive = small, poorly fitted or top-dose-only effect; inactive = no such curve, though single readings can be large or run the other way. Potencies of inconclusive entries are doubtful fits and often do not repeat.

target: Bromodomain adjacent to zinc finger domain protein 2B (Homo sapiens) (UniProt Q9UIF8); assay: qHTS Assay for Inhibitors of BAZ2B; settings: AlphaScreen BAZ2B-H3K14Ac peptide displacement; series mostly up to 114 µM; note: nearly all actives have a fitted effect of over 60% in size
Sequence of UniProt Q9UIF8 (Q9UIF8 whole entry, looked up, the tested form may be a part): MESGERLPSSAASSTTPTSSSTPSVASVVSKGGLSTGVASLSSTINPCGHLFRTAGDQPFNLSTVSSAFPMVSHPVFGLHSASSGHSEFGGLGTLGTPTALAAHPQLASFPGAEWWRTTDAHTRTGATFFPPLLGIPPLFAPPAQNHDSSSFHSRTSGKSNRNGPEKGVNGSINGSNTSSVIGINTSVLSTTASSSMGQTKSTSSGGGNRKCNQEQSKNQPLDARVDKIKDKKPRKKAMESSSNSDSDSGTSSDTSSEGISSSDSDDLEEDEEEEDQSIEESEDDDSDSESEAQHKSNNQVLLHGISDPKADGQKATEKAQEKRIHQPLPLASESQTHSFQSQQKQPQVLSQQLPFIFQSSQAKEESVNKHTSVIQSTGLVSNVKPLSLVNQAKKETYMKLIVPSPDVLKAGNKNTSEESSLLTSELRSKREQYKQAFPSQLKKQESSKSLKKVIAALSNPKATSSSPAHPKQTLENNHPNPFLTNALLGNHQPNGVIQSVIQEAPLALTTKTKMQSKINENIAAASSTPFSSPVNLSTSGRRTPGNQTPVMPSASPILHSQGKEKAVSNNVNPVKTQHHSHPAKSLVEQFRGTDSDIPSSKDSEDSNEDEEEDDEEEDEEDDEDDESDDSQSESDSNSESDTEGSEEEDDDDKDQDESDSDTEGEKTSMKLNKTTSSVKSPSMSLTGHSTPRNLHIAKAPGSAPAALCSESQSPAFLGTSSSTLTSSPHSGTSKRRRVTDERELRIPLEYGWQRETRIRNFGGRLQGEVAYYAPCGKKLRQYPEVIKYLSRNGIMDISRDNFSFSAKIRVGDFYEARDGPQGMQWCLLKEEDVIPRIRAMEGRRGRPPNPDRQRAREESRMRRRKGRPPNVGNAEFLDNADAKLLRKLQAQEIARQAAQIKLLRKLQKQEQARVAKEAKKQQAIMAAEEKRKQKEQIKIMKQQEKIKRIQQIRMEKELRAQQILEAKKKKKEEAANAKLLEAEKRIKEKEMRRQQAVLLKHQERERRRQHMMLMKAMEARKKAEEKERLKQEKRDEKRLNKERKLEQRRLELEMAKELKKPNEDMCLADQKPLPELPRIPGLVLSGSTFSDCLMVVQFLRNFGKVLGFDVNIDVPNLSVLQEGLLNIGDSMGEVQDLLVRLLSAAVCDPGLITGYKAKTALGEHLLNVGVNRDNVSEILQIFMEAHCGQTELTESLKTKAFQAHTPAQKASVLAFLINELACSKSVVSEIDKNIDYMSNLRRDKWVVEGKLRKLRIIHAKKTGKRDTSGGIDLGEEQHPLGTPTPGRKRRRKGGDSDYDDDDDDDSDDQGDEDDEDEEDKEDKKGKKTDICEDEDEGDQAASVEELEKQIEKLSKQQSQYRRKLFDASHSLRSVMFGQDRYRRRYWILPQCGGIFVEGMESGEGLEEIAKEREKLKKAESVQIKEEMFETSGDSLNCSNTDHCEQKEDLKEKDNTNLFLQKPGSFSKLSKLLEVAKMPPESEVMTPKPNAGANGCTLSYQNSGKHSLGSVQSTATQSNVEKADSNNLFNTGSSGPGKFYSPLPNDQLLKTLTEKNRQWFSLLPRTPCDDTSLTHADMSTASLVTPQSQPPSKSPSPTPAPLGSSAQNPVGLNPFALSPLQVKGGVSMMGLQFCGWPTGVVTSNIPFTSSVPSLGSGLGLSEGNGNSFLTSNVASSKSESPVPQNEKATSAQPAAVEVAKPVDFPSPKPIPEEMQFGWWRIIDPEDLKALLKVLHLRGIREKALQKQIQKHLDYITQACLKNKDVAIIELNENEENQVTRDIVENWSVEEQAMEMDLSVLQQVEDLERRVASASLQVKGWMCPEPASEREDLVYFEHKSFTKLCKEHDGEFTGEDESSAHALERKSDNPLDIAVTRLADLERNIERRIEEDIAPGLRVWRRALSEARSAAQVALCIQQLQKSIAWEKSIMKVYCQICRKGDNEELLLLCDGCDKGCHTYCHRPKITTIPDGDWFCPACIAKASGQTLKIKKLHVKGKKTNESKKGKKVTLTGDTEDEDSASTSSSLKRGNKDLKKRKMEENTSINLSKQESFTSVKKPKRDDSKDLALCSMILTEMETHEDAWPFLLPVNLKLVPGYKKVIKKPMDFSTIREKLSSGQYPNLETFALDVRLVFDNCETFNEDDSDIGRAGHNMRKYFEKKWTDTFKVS
Method in brief: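 Complex of BAZ2B and biotin-H3K14Ac (50 nM apiece) forms over 30 min at RT, then faces library compounds up to 110 uM for another 30 min; AlphaScreen beads added, 20 min dark incubation, luminescence read.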
Potency is the fitted concentration of half-maximal effect; tags give direction and shape of the fitted curve.

Row | Structure (SMILES) | Potency
1 | Cc1ccc(NC(=O)NNC(=O)Cn2nc(-c3ccccc3)c(-c3ccccc3)c(C#N)c2=O)cc1 | inconclusive: 28.2 µM [inhibitor, partial curve]
2 | COc1cccc(-n2c(SCC(=O)NCc3ccco3)nnc2-c2c[nH]c3ccccc23)c1 | inconclusive: 89.1 µM [inhibitor, single point]
3 | CC(=O)Oc1ccc2oc(/C=C/N(C)C)c([N+](=O)[O-])c2c1 | inconclusive: 89.1 µM [inhibitor, single point]
4 | Cc1ccc(Nc2nc(N)nc(CN3CCN(Cc4ccc5c(c4)OCO5)CC3)n2)cc1C | active: 39.8 µM
5 | CC1CC2=C(CC1/C=N/NC(N)=S)C(C)(C)CCC2 (stereo not drawn) | inconclusive: 89.1 µM [inhibitor, single point]
6 | CCOC(=O)c1c(NC(=S)N2CCN(C)CC2)sc2c1CCN(C(=O)OCC)C2 | inconclusive: 50.1 µM [inhibitor, partial curve]
7 | CC(=O)c1ccc(NC(=O)c2c(C)nn(-c3ccccc3)c2Cl)cc1 | inconclusive: 70.8 µM [inhibitor, single point]
8 | CC1(C)Cc2c(cnn2-c2ccccc2)-c2c1c1ccccc1n2CC(O)CBr (stereo not drawn) | inconclusive: 70.8 µM [inhibitor, single point]
9 | COc1ccc(OCCn2cncn2)cc1 | active: 56.2 µM
10 | CCOC(=O)CCc1c(C)c2ccc3c(c2oc1=O)CN(CCCO)CO3 | inactive
11 | CCc1ccccc1NC(=O)CSc1nnc(-c2ccccc2)c(-c2ccccc2)n1 | inactive
12 | O=c1c(-c2cccc([N+](=O)[O-])c2)[n+]([O-])c2ccccc2n1O | inconclusive: 100 µM [inhibitor, single point]
13 | O=C(COc1ccc(/C=N/NC(=O)c2ccc(O)cc2)cc1)Nc1ccc([N+](=O)[O-])cc1 | inactive
14 | COc1ccc(C(=O)N/C(=C\c2cn(C)c3ccccc23)C(=O)N2CCOCC2)cc1OC | inconclusive: 70.8 µM [inhibitor, single point]
15 | Cc1ccc(C)c(N2CCN(C(=O)C3CCN(C(=O)c4cc5sccc5n4C)CC3)CC2)c1 | active: 25.1 µM
16 | O=c1c([N+](=O)[O-])c(NCCN2CCCCCC2)c2ccccc2n1-c1ccccc1 | inconclusive: 79.4 µM [inhibitor, single point]
17 | CCOc1ccc(Nc2c3ccccc3nc3ccccc23)cc1 | active: 35.5 µM
18 | Cc1ccc(-c2nc(CN(C)C)cc(CN(C)C)c2O)cc1 | inconclusive: 79.4 µM [inhibitor, single point]
19 | CCCCNC(=O)COC(=O)c1ccc(Cl)c(S(=O)(=O)N2CCCC2)c1 | inconclusive: 0.708 µM [inhibitor, full curve]
20 | CC1Cc2cc(/C(O)=C3/C(=O)C(=O)N(CCN4CCOCC4)C3c3cccc(O)c3)ccc2O1 (stereo not drawn) | inactive
21 | COc1ccc(N2CC(O)=C(c3nc(-c4ccc(Br)cc4)cs3)C2=N)cc1 | inactive
22 | O=C(Nc1ccccc1)c1ccccc1CCc1ccccc1 | inconclusive: 89.1 µM [inhibitor, single point]

Row | Structure (SMILES) | Potency
23 | Cc1[nH]c2ccc(C(=O)Nc3ccc(F)cc3)cc2c1C | inconclusive: 35.5 µM [inhibitor, full curve]
24 | Cc1ccccc1CN1C(=O)c2ccccc2S(=O)c2ccc(C(=O)NCc3ccco3)cc21 (stereo not drawn) | inconclusive: 70.8 µM [inhibitor, single point]
25 | Clc1ccccc1C(c1nnnn1Cc1ccco1)N1CCN(Cc2ccco2)CC1 (stereo not drawn) | inconclusive: 50.1 µM [inhibitor, partial curve]
26 | CCCCN(C)S(=O)(=O)c1ccc(C(=O)N(CCN(C)C)c2nc3ccc(C)cc3s2)cc1 | inconclusive: 70.8 µM [inhibitor, single point]
27 | O=[N+]([O-])c1cccc2c(S(=O)(=O)N3CCCCC3)cccc12 | active: 70.8 µM
28 | Cc1oc(-c2ccccc2F)nc1CS(=O)(=O)CC(=O)N1CCN(c2ccc(Cl)cc2)CC1 | inconclusive: 79.4 µM [inhibitor, partial curve]
29 | CN1c2ccsc2C(O)=C(C(=S)Nc2ccccc2)S1(=O)=O | inconclusive: 89.1 µM [inhibitor, single point]
30 | CCc1cccc(NC(=O)c2c(N3CCCC3=O)c3cc(C)ccc3n2C)c1 | inconclusive: 89.1 µM [inhibitor, single point]
31 | COCCOC(=O)c1c(C)oc2ccc(OC(=O)c3cccs3)cc12 | inactive
32 | CCN(Cc1cnn(C)c1)Cc1nc(C(c2ccccc2)c2ccccc2)no1 | inconclusive: 100 µM [inhibitor, single point]
33 | Cc1cc(C)c2sc(N(CCCN(C)C)C(=O)CN3C(=O)c4ccccc4C3=O)nc2c1 | inconclusive: 89.1 µM [inhibitor, single point]
34 | CCN1c2ccccc2NC2C1C(C(C)=O)C(=O)N2c1ccc(Cl)cc1 (stereo not drawn) | inconclusive: 89.1 µM [inhibitor, single point]
35 | Brc1cccc(/C=N/Nc2nn[nH]n2)c1 | inconclusive: 89.1 µM [inhibitor, single point]
36 | COc1ccc(NC2=NCCC(=O)N2Cc2cccs2)cc1 | inconclusive: 79.4 µM [inhibitor, partial curve]
37 | CCOc1ccc(NC(=O)CSC2=Nc3ccccc3C3=NC(CC(=O)NCc4ccccc4OC)C(=O)N23)cc1 (stereo not drawn) | inactive
38 | COc1ccc(-c2noc(CCC(=O)NCc3cccnc3)n2)cc1 | inactive
39 | Cn1cc(CN2CCc3c([nH]c4ccccc34)C2C2CCCCC2)cn1 (stereo not drawn) | active: 44.7 µM
40 | O=C(c1ccccc1)C(C(=O)N1CCCCC1)n1ccccc1=O (stereo not drawn) | inconclusive: 79.4 µM [inhibitor, single point]
41 | Fc1ccc(Br)cc1C1C=C(c2ccc(Br)cc2)Nc2ncnn21 (stereo not drawn) | inactive
42 | COc1cccc(-n2c(C)cc(/C=C3\C(=N)N4N=C(CC(=O)N5CCOCC5)SC4=NC3=O)c2C)c1 | active: 50.1 µM
43 | CCSc1nnc(NC(=O)c2nc(S(=O)(=O)Cc3ccc(F)cc3)ncc2Cl)s1 | inconclusive: 79.4 µM [inhibitor, single point]
